ChEMBL document CHEMBL4888484, “Replenishing the malaria drug discovery pipeline: Screening and hit evaluation of the MMV Hit Generation Library 1 (HGL1) against asexual blood stage Plasmodium falciparum ,using a nano luciferase reporter read-out” (2022)
About 540 (0.36%) of roughly 150,000 compounds showed an effect of 50% or more. The list shows a part of the results.

Tested on: Plasmodium falciparum
Assay: Primary screen in NF54 nanoGlo assay, in single point, at 2uM, 72h; a lower Z score goes with more inhibition
Format: functional, Erythrocyte
Details: timepoint 72 hour

Row | SMILES | % Inhibition [%] | Z score
1 | CCOc1ccccc1NC(=O)c1c(O)c2cccnc2n(-c2ccccc2)c1=O | 8 | -1.03
2 | N#Cc1ccc(F)c(CNS(=O)(=O)c2ccc(OCC(F)(F)F)nc2)c1 | -5 | 0.95
3 | O=C(Nc1c[nH]nc1C1CC1)c1cc(C(F)F)ncn1 | -22 | 2.22
4 | CC(C)Cc1cc(C(=O)N2CCn3nc(C#N)cc3C2)no1 | -9 | 1.27
5 | CC1(C)CNC(=O)[C@H]1NS(=O)(=O)c1ccc2c(c1)CCCC2 | -12 | 1.51
6 | CN(CC#N)C(=O)c1cnc(N(C)C)cn1 | -2 | 0.44
7 | CC1=CC[C@H]2CN(C(=O)Cc3c[nH]c4ccccc34)C[C@H]2C1 | -7 | 0.7
8 | COc1ccc(C(=O)CN2CCC(COCc3ccc(C#N)cc3)CC2)cc1 | -12 | 1.36
9 | COCCCN1C(=O)c2ccc(C(=O)Nc3ccc(Oc4ccc(OC)cc4)cc3)cc2C1=O | -3 | 0.47
10 | CCN(Cc1ccco1)C(=O)N[C@H]1CCS(=O)(=O)C1 | -9 | 1.61
11 | CNc1nnc(Cc2csc(NC(=O)c3cc4c(nc3OC)CCC4)n2)s1 | -21 | 2.26
12 | O=C(N[C@H]1CCCN(CCCc2ccccc2)C1)c1c[nH]c2ncnn2c1=O | 9 | -1.24
13 | CCOc1cc(CN[C@H](C(N)=O)[C@@H](C)O)c(Cl)cc1OC(C)C | -17 | 2.49
14 | CCC[C@H](C)c1nc(N2CCCN(C(=O)c3ccccc3C)CC2)c2c(C)nn(-c3ccc(F)cc3)c2n1 | -5 | 0.62
15 | C[C@H]1CN(C(=O)c2cc3sccc3[nH]2)CC2(CCC2)O1 | 2 | -0.35
16 | Cc1ccc([C@@H]2Cn3cnc(C(=O)N4CCC(C(=O)NCCC5=CCCCC5)CC4)c3CO2)cc1 | -19 | 1.77
17 | CN1CCCC1CCN1CCC[C@@H](NC(=O)OC(C)(C)C)C1 (stereo partly specified) | -6 | 0.78
18 | CC(C)c1nnc(Cn2nnc(-c3ccncn3)n2)s1 | 39 | -7.06
19 | COc1ccc2ncn([C@H]3C[C@H]4CC[C@@H]3C4)c(=O)c2c1 | -2 | 0.28
20 | CC1CN(C(C)C)CC1NC(=O)N1Cc2ccccc2[C@@H]1C (stereo partly specified) | -12 | 2.12
21 | Cn1nccc1C1CC2CCC(C1)N2S(=O)(=O)c1ccoc1 (stereo unspecified) | 11 | -2.06
22 | O=C(O)[C@@H]1CN(c2ncccn2)CCN(C2Cc3ccccc3C2)C1 | -1 | 0.12
23 | O=C(Nc1ccc(N2CCN(Cc3cccc(Oc4ccccc4)c3)CC2)nc1)c1ccccc1F | -8 | 1.22
24 | O=C(c1ccnc(-c2ccc(F)c(F)c2)c1)N1CCOCC1 | -5 | 0.94
25 | COC1CC(CN(C)[C@@H]2COC[C@H]2O)N(C(=O)OC(C)(C)C)C1 (stereo partly specified) | -7 | 0.67
26 | O=C(NC1CC1)c1coc(CN(Cc2ccccc2)Cc2cccc(Cl)c2Cl)n1 | 1 | -0.23
27 | N#CCC1(O)CN(Cc2cscn2)C1 | -8 | 1.19

Row | SMILES | % Inhibition [%] | Z score
28 | COc1ccsc1C(=O)N(CCc1nccs1)C(C)C | -2 | 0.23
29 | COCCC(=O)N1CCN(C(=O)c2cscc2C)CC1 | 5 | -0.67
30 | NC(=O)c1ccc(S(=O)(=O)NC(=O)[C@H]2CC[C@H](c3ccccc3)C2)s1 | -5 | 0.42
31 | Cc1cc2n(n1)C(C(F)(F)F)CCN2C(=O)C(C)N1C(=O)C2CCCCC2C1=O (stereo unspecified) | 34 | -4.9
32 | COc1ccc(-c2noc(CN3CCC(C(=O)N4CCCC4)CC3)n2)cc1OC | -2 | 0.35
33 | COc1cc(NC(=O)N2CCC[C@H]2c2cc(C(C)C)no2)cc(OC)c1OC | -1 | 0.12
34 | Cc1nc(CC(=O)Nc2nc(C)c(C)s2)cs1 | -7 | 1.17
35 | C[C@@H](c1ccccc1)N(Cc1ccc(Cl)c(Cl)c1)Cc1nc(C(=O)NC2CC2)co1 | -9 | 1.09
36 | O=C(NCc1cccnc1Oc1ccc(F)c(F)c1)C1CCOCC1 | -3 | 0.53
37 | Cc1nnc(CNC(CC2CCOC2)c2ccccc2)s1 (stereo unspecified) | -10 | 1.62
38 | COc1ccc(NC(=O)c2ccc(-n3c(N)c(C#N)c4nc5ccccc5nc43)cc2)cc1 | -3 | 0.46
39 | OC[C@H]1CCCN(CCNCc2ccc3cc(Cl)ccc3n2)C1 | -6 | 0.96
40 | CCOCCOC(=O)c1nc2ccccc2nc1Nc1ccc(OC)c(Cl)c1 | 0 | -0.01
41 | C#CCOc1cccc(NC(=O)C(=O)NCc2nccs2)c1 | -12 | 1.55
42 | CC(C)=CCCN1CC[C@H](NC(=O)c2ccccc2)[C@@H](O)C1 | -5 | 1
43 | CCO[C@H](C(=O)N1CCc2c(cnn2-c2ccccc2)C1)C(C)C | 0 | 0.02
44 | COc1ccc(NC(=O)CCc2c(C)nn(-c3cc(N4CCCC4)ncn3)c2C)c(OC)c1 | -9 | 1.86
45 | O=C1NCCN1CCNc1cc(C2CC2)ncn1 | 2 | -0.18
46 | CC(C)=CCN1CCN(Cc2cccc3ccccc23)[C@H]2CS(=O)(=O)C[C@H]21 | -5 | 0.57
47 | O=C(NCC1(N2CCOCC2)CCCCC1)c1nc2n(n1)-c1ccccc1S(=O)(=O)N2 | -7 | 1.13
48 | Cc1ncsc1C(=O)N(C)C1CN(c2ccc3nnc(C4CCC4)n3n2)C1 | -14 | 2
49 | COc1ccccc1NC(=O)C[C@H]1C(=O)Nc2ccccc2N1C(=O)c1ccccc1 | 5 | -0.88
50 | O=C(Nc1nc(-c2ccccc2)cs1)c1sc2cccc(Cl)c2c1Cl | -7 | 0.79
51 | O=C(Nc1ccccc1N1CCCC1)NC1CCCC2OCCC12 (stereo unspecified) | -7 | 0.81
52 | C[C@@](Cn1cccn1)(NC(=O)c1ccc(Cl)s1)C(N)=O | -6 | 0.83
53 | O=C(c1ccco1)N1CCN(Cc2ccc3c(c2)CCO3)C[C@H](O)C1 | -9 | 1.05
